Out of some 310,000 compounds screened, about 14,000 (4.5%) showed an effect of 50% or more. Effects have a minus sign here. This is one part of the list.
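Note: peak tail current of the secondary pulse compared with the same well before compound.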

human ether-à-go-go-related gene (hERG) potassium channel, sequence (Q12809 whole entry, looked up): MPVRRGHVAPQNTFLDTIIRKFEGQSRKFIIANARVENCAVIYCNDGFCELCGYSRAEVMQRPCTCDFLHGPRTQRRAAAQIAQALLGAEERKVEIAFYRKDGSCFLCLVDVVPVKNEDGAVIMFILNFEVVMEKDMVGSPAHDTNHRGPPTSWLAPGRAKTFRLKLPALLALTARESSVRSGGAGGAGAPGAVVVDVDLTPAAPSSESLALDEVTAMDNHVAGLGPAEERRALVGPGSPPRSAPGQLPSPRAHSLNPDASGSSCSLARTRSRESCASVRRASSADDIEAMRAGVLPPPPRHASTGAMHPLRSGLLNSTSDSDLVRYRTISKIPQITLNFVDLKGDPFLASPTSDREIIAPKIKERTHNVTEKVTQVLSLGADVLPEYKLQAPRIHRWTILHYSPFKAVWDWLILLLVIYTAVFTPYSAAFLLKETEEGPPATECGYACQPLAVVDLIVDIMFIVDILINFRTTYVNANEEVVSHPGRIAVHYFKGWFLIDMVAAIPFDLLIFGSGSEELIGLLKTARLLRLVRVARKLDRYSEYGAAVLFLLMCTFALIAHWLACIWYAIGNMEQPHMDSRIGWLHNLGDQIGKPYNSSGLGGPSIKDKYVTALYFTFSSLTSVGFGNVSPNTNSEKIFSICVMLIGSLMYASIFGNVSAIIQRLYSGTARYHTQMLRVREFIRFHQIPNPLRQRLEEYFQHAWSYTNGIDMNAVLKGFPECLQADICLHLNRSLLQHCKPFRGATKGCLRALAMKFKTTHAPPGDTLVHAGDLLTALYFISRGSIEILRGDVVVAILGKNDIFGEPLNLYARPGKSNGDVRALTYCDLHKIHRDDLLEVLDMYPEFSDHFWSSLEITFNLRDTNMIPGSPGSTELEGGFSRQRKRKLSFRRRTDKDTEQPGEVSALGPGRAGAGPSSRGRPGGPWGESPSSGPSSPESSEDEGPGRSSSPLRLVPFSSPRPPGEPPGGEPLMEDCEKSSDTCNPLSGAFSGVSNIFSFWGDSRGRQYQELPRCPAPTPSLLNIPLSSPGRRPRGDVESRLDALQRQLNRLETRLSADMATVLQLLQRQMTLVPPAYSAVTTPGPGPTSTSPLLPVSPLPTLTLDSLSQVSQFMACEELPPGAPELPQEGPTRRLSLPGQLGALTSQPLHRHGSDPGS

This assay has as its target human ether-à-go-go-related gene (hERG) potassium channel (human, UniProt Q12809). Nature of the assay: primary screen, population patch clamp on CHO cells stably expressing hERG.
For `N#Cc1nc(Nc2cccc(Cl)c2)c2ncn(C3CCCC3)c2n1`, the “hERG current change (%, negative = inhibition) at 10uM” value is 8.12%.

Take `CC(C)(C)C(=O)Nc1ccccc1N1CCN(c2ccc(F)cc2)CC1`: the “hERG current change (%, negative = inhibition) at 10uM” value was 16.9%.

As for `CC1CN(S(=O)(=O)c2cccc(C(=O)Nc3ccc4c(c3)CCC4)c2)CC(C)O1` (centres unmarked), the “hERG current change (%, negative = inhibition) at 10uM” value was -13.4%.

Turning to `CC(=O)CC1(C)OC(N)=C(C#N)C1(C#N)C#N` (centres unmarked), the “hERG current change (%, negative = inhibition) at 10uM” value was 4.97%.

Take `Cc1cccc(N(CC(=O)NC2CC3CCC2C3)S(=O)(=O)c2ccccc2)c1` (centres unmarked): the “hERG current change (%, negative = inhibition) at 10uM” value was -21.1%.

As to `COc1ccc2c(c1)c(C(=O)C(C)N1CCCCC1)c(C)n2C` (centres unmarked), the “hERG current change (%, negative = inhibition) at 10uM” value stood at 17.2%.

Consider `COc1cc(NCCC(=O)c2cccs2)c(OC)cc1Cl`, for which the “hERG current change (%, negative = inhibition) at 10uM” value is -12.4%.

For `O=S(=O)(/C=C/c1ccccc1)N1CCN(c2ccc(F)cc2)CC1`, the “hERG current change (%, negative = inhibition) at 10uM” value was -1.92%.

Consider `O=C(Cc1ccc(-n2c(=O)c3sccc3n(CC(=O)Nc3ccccc3F)c2=O)cc1)NCc1ccco1`, for which the “hERG current change (%, negative = inhibition) at 10uM” value is reported as 1.05%.

As to `C/C(=N\NC(N)=O)C1CC(CC(C)C)C(=O)O1` (centres unmarked), the “hERG current change (%, negative = inhibition) at 10uM” value came out at 24.8%.

Turning to `Cn1c2ccccc2c2cnn(CC(=O)N3CCCCC3)c(=O)c21`, the “hERG current change (%, negative = inhibition) at 10uM” value is -10.4%.

Regarding `N#CCCn1cc(C(=O)CN2C(=O)NC3(CCCCCC3)C2=O)c2ccccc21`, the “hERG current change (%, negative = inhibition) at 10uM” value is given as -6.16%.

Regarding `CCOC(CCNC(=O)CCC(=O)Nc1ccc2nc(N3CCN(C)CC3)cc(C)c2c1)OCC`, the “hERG current change (%, negative = inhibition) at 10uM” value is listed as 14%.

Take `COc1ccc(CNC(=O)Cn2nnc3ccccc3c2=O)cc1`: the “hERG current change (%, negative = inhibition) at 10uM” value is given as 10.8%.

For `CC(=O)Nc1ccc(S(=O)(=O)Nc2cc(-c3ccccc3)nn2C)cc1`, the “hERG current change (%, negative = inhibition) at 10uM” value came out at 18.5%.

In the case of `COc1ccccc1-n1cc(-c2ccccc2)c2c(=S)nc[nH]c21`, the “hERG current change (%, negative = inhibition) at 10uM” value was determined as 16.5%.

Take `COCc1[nH][nH]c(=O)c1C=Nc1ccc(F)cc1F`: the “hERG current change (%, negative = inhibition) at 10uM” value is recorded as 0.597%.

As to `CCOC(=O)c1cnc(-c2ccccc2)nc1Oc1ccc(C)cc1`, the “hERG current change (%, negative = inhibition) at 10uM” value is recorded as 12.2%.

Consider `O=c1cc(C(F)(F)F)[nH]c(=O)n1C1CCCCC1`, for which the “hERG current change (%, negative = inhibition) at 10uM” value is reported as -15.1%.

Turning to `COc1ccc(S(=O)(=O)N2CCC(C(=O)N[C@@H](C)C(=O)N3CCCCCC3)CC2)cc1`, the “hERG current change (%, negative = inhibition) at 10uM” value is reported as -17.1%.

`Cc1ccc(CN(CC(=O)NCc2ccccn2)S(=O)(=O)c2ccccc2)cc1`: the “hERG current change (%, negative = inhibition) at 10uM” value is recorded as -23.9%.

As to `CCOC(=O)CSc1ccc(C(=O)NCCN2CCOCC2)cc1[N+](=O)[O-]`, the “hERG current change (%, negative = inhibition) at 10uM” value came out at 12.6%.

For `C=CC[N+](C)(C)CCCNC(=O)/C=N/O.[I-]`, the “hERG current change (%, negative = inhibition) at 10uM” value is 13.4%.

Turning to `COCCN(Cc1ccccc1)C(=O)c1cccc(S(=O)(=O)N2CCCc3ccccc32)c1`, the “hERG current change (%, negative = inhibition) at 10uM” value is reported as -21.2%.

With `CN(CC(=O)Nc1cccc(F)c1)C(=O)c1ccc2c(c1)NC(=O)CS2`, the “hERG current change (%, negative = inhibition) at 10uM” value is on record as -12.1%.

For `COc1ccc(C(=O)Nc2oc(-c3ccccc3)c(-c3ccccc3)c2C#N)cc1OC`, the “hERG current change (%, negative = inhibition) at 10uM” value is given as 9.54%.

As for `COC(=O)c1c(C)[nH]c(C(=O)C(C)OC(=O)c2cnc(C)cn2)c1C` (centres unmarked), the “hERG current change (%, negative = inhibition) at 10uM” value stood at 10.5%.

On to `Cc1occc1C(=O)NCCCCc1ccccc1`, for which the “hERG current change (%, negative = inhibition) at 10uM” value is on record as 9.01%.

On to `c1ccc2[nH]c(SCc3cn4ccccc4n3)nc2c1`, for which the “hERG current change (%, negative = inhibition) at 10uM” value is listed as -28.3%.

Regarding `O=C(Nc1ccc(OCC(F)(F)C(F)F)c(C(F)(F)F)c1)c1ccc(Cl)cc1`, the “hERG current change (%, negative = inhibition) at 10uM” value is recorded as 4.62%.

As to `Cc1ccsc1/C=N/NC(=O)c1nnn(-c2nonc2N)c1C`, the “hERG current change (%, negative = inhibition) at 10uM” value is reported as -0.0286%.

On to `O=C(CN1C(=O)C2C3C=CC(C3)C2C1=O)Nc1ccc(S(=O)(=O)N2CCCCC2)cc1` (centres unmarked), for which the “hERG current change (%, negative = inhibition) at 10uM” value is -7.32%.

Turning to `Cc1onc(-c2ccccc2)c1C(=O)N1CCCN2C(=O)c3ccccc3C21` (centres unmarked), the “hERG current change (%, negative = inhibition) at 10uM” value is on record as -25.9%.

`CCC/C=C1/CCCOC(C(=O)NCCNCCO)(C(F)(F)F)C1` (centres unmarked): the “hERG current change (%, negative = inhibition) at 10uM” value amounted to 20.4%.

For `CCOC(=O)c1sc(/N=C/C2=C(O)CC(C)(C)CC2=O)c(C(=O)OCC)c1C`, the “hERG current change (%, negative = inhibition) at 10uM” value is recorded as -4.12%.

Turning to `CCOC(=O)C1CCN(c2ncnc3c2cnn3-c2ccc(Cl)cc2)CC1`, the “hERG current change (%, negative = inhibition) at 10uM” value is -0.685%.

Regarding `CCCCn1c(=O)[nH]c(=O)c2c1nc(-c1ccc(OCC)cc1)n2CC`, the “hERG current change (%, negative = inhibition) at 10uM” value is 1.27%.

With `COC(=O)c1ccc(CNC(=O)COC(=O)CCN2C(=O)C3CC=CCC3C2=O)cc1` (centres unmarked), the “hERG current change (%, negative = inhibition) at 10uM” value was determined as 0.667%.

As to `COc1ccc(Cl)c2c1[nH]c1nc(SCc3cccnc3)nnc12`, the “hERG current change (%, negative = inhibition) at 10uM” value turned out to be 22.1%.

On to `COc1cccc(-c2nc(CC(=O)O)cs2)c1OC`, for which the “hERG current change (%, negative = inhibition) at 10uM” value was found to be 14.9%.

`O=C(O)C1C2C=CC(O2)C1C(=O)NCc1ccccc1Br` (centres unmarked): the “hERG current change (%, negative = inhibition) at 10uM” value is 16.7%.

In the case of `COc1cc(C2C(C(=O)c3ccco3)=C(O)C(=O)N2c2cc(C)on2)cc(Br)c1O` (centres unmarked), the “hERG current change (%, negative = inhibition) at 10uM” value was found to be 6.84%.

For `CCCCc1cc(=O)oc2cc(OCC(=O)NCc3ccccn3)ccc12`, the “hERG current change (%, negative = inhibition) at 10uM” value is recorded as -38.3%.

On to `CCn1nc(C(=O)OCC(=O)N2c3ccccc3CC2C)c2ccccc2c1=O` (centres unmarked), for which the “hERG current change (%, negative = inhibition) at 10uM” value is -11.9%.

Turning to `CCOC(=O)C(=CNc1cccnc1Oc1ccc(C)c2c1CCC2)C(=O)OCC`, the “hERG current change (%, negative = inhibition) at 10uM” value is on record as -5.67%.

Take `COc1ccc(S(=O)(=O)N2CCN(c3ncccn3)CC2)cc1OC`: the “hERG current change (%, negative = inhibition) at 10uM” value is on record as -4.15%.

Take `CCOc1ccc(NC(=S)NC(=O)C2CCCC2)cc1`: the “hERG current change (%, negative = inhibition) at 10uM” value came to 3.43%.

Consider `Nc1ncc(CCN2CCOCC2)c(-c2ccc(F)cc2)n1`, for which the “hERG current change (%, negative = inhibition) at 10uM” value amounted to 13.4%.

Consider `COC(=O)c1cc(-c2cccc(OC)c2)on1`, for which the “hERG current change (%, negative = inhibition) at 10uM” value was 8.04%.

For the molecule `CCCc1cc(=O)[nH]c(SCc2cc(=O)oc3cc(C)c(C(C)C)cc23)n1`, the “hERG current change (%, negative = inhibition) at 10uM” value was -26.8%.

With `C[C@@]12CCC=C[C@H]1[C@H](c1ccc3ccccc3c1)N(Cc1ccccc1)C2=O`, the “hERG current change (%, negative = inhibition) at 10uM” value is listed as 8.39%.

Turning to `COc1cccc(-c2ccc(NC(=O)C3CCCN(Cc4cnn(C(C)C)c4)C3)cc2)c1` (centres unmarked), the “hERG current change (%, negative = inhibition) at 10uM” value was -79.7%.

On to `Cc1cc(OCc2ccc(F)cc2)nc(-c2ccccc2O)n1`, for which the “hERG current change (%, negative = inhibition) at 10uM” value was determined as 3.2%.

For `COc1ccc(OCC(=O)N(Cc2cccs2)C2CCS(=O)(=O)C2)cc1` (centres unmarked), the “hERG current change (%, negative = inhibition) at 10uM” value is recorded as -6.75%.

Regarding `Cc1ccc(C(=O)C2=C(O)C(=O)N(CCCN(C)C)C23C(=O)N(C)c2ccccc23)o1` (centres unmarked), the “hERG current change (%, negative = inhibition) at 10uM” value is given as 6.71%.

For `Cc1nn(CC(=O)OCC(=O)c2ccc(OC(F)F)cc2)c(C)c1[N+](=O)[O-]`, the “hERG current change (%, negative = inhibition) at 10uM” value is -10.1%.

The record behind these values is PMC4336329 (PLoS ONE, 2015).
